Assay results taken from patent publication EP2057185B1, “POLYMYXIN DERIVATIVES AND USES THEREOF” (Northern Antibiotics Oy, priority 2006, dated 2008).
At least one peptide structure holds a part that was inferred or is arguable (an end, a ring closure or a residue). Bridge positions count the residues as written; N and C are the ends. Square brackets hold non-standard residues; d marks the D form. Peptide text beside a SMILES is read from it. * marks the point of attachment. Heptanoyl(6-Me) = CC(C)CCCCC(=O)*; Octanoyl = CCCCCCCC(=O)*; Dab = NCC[C@H](N)C(=O)O; Abu = CC[C@H](N)C(=O)O; For = O=C*

Tests used:
E. coli IH3080 [1] = assay: Growth inhibition around wells on LB plates containing rifampin (sensitization); type: cell-based, Escherichia coli; conditions: well containing 4 µg of compound; for Antibacterial activity in the presence of rifampin concn (µg/ml) of 0: plates with no rifampin; for Antibacterial activity in the presence of rifampin concn (µg/ml) of 0.1: rifampin 0.1 µg/ml; for Antibacterial activity in the presence of rifampin concn (µg/ml) of 1.0: rifampin 1.0 µg/ml
Description: From an overnight-grown culture of IH3080 on LB agar, a suspension of approx. 10^8 cells/ml was prepared in 0.9% NaCl. Aliquots of this suspension were then pipetted on the agar plates and the plates were gently shaken to spread the suspension evenly on the entire surface of the plate. Thereafter, the unabsorbed part of the suspension was removed by using a Pasteur pipette. After the surface had dried, small wells (diameter, 2 mm) were drilled on the plates (five wells per plate) by using a sterile sharp-edged narrow metal tube, single-use pipette tip, and vacuum suction. […] Controls included 0.9% NaCl solution without the compound to be tested. The plates were then incubated for 18 h at 37°C whereafter the diameters of growth inhibition zones around each well were measured; the diameter of the well itself was […]. Finally, the diameters were converted to surface areas of growth inhibition (in square mm). […] Louis, MO, U.S.A).

E. coli IH3080 [2] = assay: Growth inhibition around wells on LB agar plates; type: cell-based, Escherichia coli; conditions: 18 h at 37°C; for Antibacterial activity at 4 µg: growth inhibition area around a well containing 4 µg of compound; for Antibacterial activity at 10 µg: growth inhibition area around a well containing 10 µg of compound
Description: Peptides synthesized in Example 1, all carrying at least two (2) but not more than three (3) positive charges, were studied for their ability to inhibit the growth of E. coli. This was tested employing LB agar (LB Agar Lennox, Difco, BD, Sparks, MD, U.S.A) plates. The indicator organism E. coli IH3080 (K1:O18) was an encapsulated strain originally isolated from a neonate suffering from meningitis (Vaara et al. 1984) and obtained from National Public Health Institute, Helsinki, Finland.
From an overnight-grown culture of IH3080 on LB agar, a suspension of approx. 10^8 cells/ml was prepared in 0.9% NaCl. Aliquots of this suspension were then pipetted on the agar plates and the plates were gently shaken to spread the suspension evenly on the entire surface of the plate. Thereafter, the unabsorbed part of the suspension was removed by using a Pasteur pipette. After the surface had dried, small wells (diameter, 2 mm) were drilled on the plates (five wells per plate) by using a sterile sharp-edged narrow metal tube, single-use pipette tip, and vacuum suction. […] Controls included 0.9% NaCl solution without the compound to be tested. The plates were then incubated for 18 h at 37°C whereafter the diameters of growth inhibition zones around each well were measured; the diameter of the well itself was […]. Finally, the diameters were converted to surface areas of growth inhibition (in square mm).

Structure (SMILES)	Antibacterial activity in the presence of rifampin concn (µg/ml) of 0 (E. coli IH3080 [1]) [square millimeters]	Antibacterial activity in the presence of rifampin concn (µg/ml) of 0.1 (E. coli IH3080 [1]) [square millimeters]	Antibacterial activity in the presence of rifampin concn (µg/ml) of 1.0 (E. coli IH3080 [1]) [square millimeters]	Antibacterial activity at 4 µg (E. coli IH3080 [2]) [square millimeters]	Antibacterial activity at 10 µg (E. coli IH3080 [2]) [square millimeters]
CC(C)C[C@@H]1NC(=O)[C@@H](CC(C)C)NC(=O)[C@H](CCN)NC(=O)[C@@H](NC(=O)[C@H](CCN)NC(=O)[C@@H](NC(=O)[C@@H](N)CCN)[C@@H](C)O)CCNC(=O)[C@H]([C@@H](C)O)NC(=O)[C@H](CCN)NC(=O)[C@H](CCN)NC1=O [Deacylcolistin, reference compound] (H-[Dab]T[Dab][Dab][Dab][dL]L[Dab][Dab]T; lactam 4-C)	79	87	127	79	95
CC(C)C[C@@H]1NC(=O)[C@@H](Cc2ccccc2)NC(=O)[C@H](CCN)NC(=O)[C@@H](NC(=O)[C@H](CCN)NC(=O)[C@@H](NC(=O)[C@@H](N)CCN)[C@@H](C)O)CCNC(=O)[C@H]([C@@H](C)O)NC(=O)[C@H](CCN)NC(=O)[C@H](CCN)NC1=O [Deacylpolymyxin B, reference compound] (H-[Dab]T[Dab][Dab][Dab][dF]L[Dab][Dab]T; lactam 4-C)	57	79	127	57	113
CC(C)C[C@@H]1NC(=O)[C@@H](Cc2ccccc2)NC(=O)[C@H](CCN)NC(=O)[C@@H](NC(=O)[C@H](CCN)NC(=O)[C@@H](N)[C@@H](C)O)CCNC(=O)[C@H]([C@@H](C)O)NC(=O)[C@H](CCNC=O)NC(=O)[C@H](CCNC=O)NC1=O [NAB 702] (H-T[Dab][Dab][Dab][dF]L[Dab](For)[Dab](For)T; lactam 3-C)	0	0	0	0	0
CC(=O)NCC[C@@H]1NC(=O)[C@H](CC(C)C)NC(=O)[C@@H](Cc2ccccc2)NC(=O)[C@H](CCN)NC(=O)[C@@H](NC(=O)[C@H](CCN)NC(=O)[C@@H](N)[C@@H](C)O)CCNC(=O)[C@H]([C@@H](C)O)NC(=O)[C@H](CCNC(C)=O)NC1=O [NAB 703] (H-T[Dab][Dab][Dab][dF]L[Dab](Ac)[Dab](Ac)T; lactam 3-C)	0	0	0	0	0
CC[C@H](NC(=O)[C@@H](NC(=O)CCCCC(C)C)[C@@H](C)O)C(=O)N[C@H]1CCNC(=O)[C@H]([C@@H](C)O)NC(=O)[C@H](CCN)NC(=O)[C@H](CCN)NC(=O)[C@H](CC(C)C)NC(=O)[C@@H](Cc2ccccc2)NC(=O)[C@H](CCN)NC1=O [NAB 706, MHA-Thr-Abu-cy[Dab-Dab-DPhe-Leu-Dab-Dab-Thr-]] ({Heptanoyl(6-Me)}-T[Abu][Dab][Dab][dF]L[Dab][Dab]T; lactam 3-C)	5	79	133	5	7
CC[C@H](NC(=O)CCCCC(C)C)C(=O)N[C@H](C(=O)N[C@@H](CC)C(=O)N[C@H]1CCNC(=O)[C@H]([C@@H](C)O)NC(=O)[C@H](CCN)NC(=O)[C@H](CCN)NC(=O)[C@H](CC(C)C)NC(=O)[C@@H](Cc2ccccc2)NC(=O)[C@H](CCN)NC1=O)[C@@H](C)O [NAB 707, MHA-Abu-Thr-Abu-cy[Dab-Dab-DPhe-Leu-Dab-Dab-Thr-]] ({Heptanoyl(6-Me)}-[Abu]T[Abu][Dab][Dab][dF]L[Dab][Dab]T; lactam 4-C)	5	87	113	5	7
CCCCCCCC(=O)N[C@H](C(=O)N[C@@H](CC)C(=O)N[C@H]1CCNC(=O)[C@H]([C@@H](C)O)NC(=O)[C@H](CCN)NC(=O)[C@H](CC)NC(=O)[C@H](CC(C)C)NC(=O)[C@@H](Cc2ccccc2)NC(=O)[C@H](CCN)NC1=O)[C@@H](C)O [NAB 708] (Octanoyl-T[Abu][Dab][Dab][dF]L[Abu][Dab]T; lactam 3-C)	0	0	0	0	0
CCCCCCCC(=O)N[C@H](C(=O)N[C@@H](CC)C(=O)N[C@H]1CCNC(=O)[C@H]([C@@H](C)O)NC(=O)[C@H](CC)NC(=O)[C@H](CCN)NC(=O)[C@H](CC(C)C)NC(=O)[C@@H](Cc2ccccc2)NC(=O)[C@H](CCN)NC1=O)[C@@H](C)O [NAB 709] (Octanoyl-T[Abu][Dab][Dab][dF]L[Dab][Abu]T; lactam 3-C)	0	0	13	0	0
CCCCCCCC(=O)N[C@H](C(=O)N[C@@H](CC)C(=O)N[C@H]1CCNC(=O)[C@H]([C@@H](C)O)NC(=O)[C@H](CCN)NC(=O)[C@H](CCN)NC(=O)[C@H](CC(C)C)NC(=O)[C@@H](Cc2ccccc2)NC(=O)[C@H](CC)NC1=O)[C@@H](C)O [NAB 710] (Octanoyl-T[Abu][Dab][Abu][dF]L[Dab][Dab]T; lactam 3-C)	0	7	13	0	7
CCCCCCCC(=O)N[C@@H](CC)C(=O)N[C@H]1CCNC(=O)[C@H]([C@@H](C)O)NC(=O)[C@H](CCN)NC(=O)[C@H](CCN)NC(=O)[C@H](CC(C)C)NC(=O)[C@@H](Cc2ccccc2)NC(=O)[C@H](CCN)NC1=O [NAB 713] (Octanoyl-[Abu][Dab][Dab][dF]L[Dab][Dab]T; lactam 2-C)	0	20	38	0	0
CCCCCCCC(=O)N[C@H](C(=O)N[C@@H](CCN)C(=O)N[C@H]1CCNC(=O)[C@H]([C@@H](C)O)NC(=O)[C@H](CCN)NC(=O)[C@H](CCN)NC(=O)[C@H](CC(C)C)NC(=O)[C@@H](Cc2ccccc2)NC(=O)[C@H](CC)NC1=O)[C@@H](C)O [NAB 715, OA-Thr-Dab-cy[Dab-Abu-DPhe-Leu-Dab-Dab-Thr-]] (Octanoyl-T[Dab][Dab][Abu][dF]L[Dab][Dab]T; lactam 3-C)	0	0	33	0	0
CC[C@@H]1NC(=O)[C@H](CC(C)C)NC(=O)[C@@H](Cc2ccccc2)NC(=O)[C@H](CCN)NC(=O)[C@@H](NC(=O)[C@H](CCN)NC(=O)[C@@H](NC(=O)[C@H](CCN)NC(=O)CCCCC(C)C)[C@@H](C)O)CCNC(=O)[C@H]([C@@H](C)O)NC(=O)[C@H](CC)NC1=O [NAB 721] ({Heptanoyl(6-Me)}-[Dab]T[Dab][Dab][Dab][dF]L[Abu][Abu]T; lactam 4-C)	0	13	28	0	0
